Measured values published in PubChem BioAssay AID1347120 (National Center for Advancing Translational Sciences (NCATS), 2019).
Values joined by “and” are separate entries in the source; they are usually repeats but may differ in a detail not shown here. Equal entries are not always repeated. About 930 (0.24%) of roughly 390,000 compounds were called active. Inconclusive means that the source gave no clear call. Such entries were picked first, then a sample of the others. Calls come from the whole dose curve; as a rule, active = well fitted activation curve with a large enough effect; inconclusive = small, poorly fitted or top-dose-only effect; inactive = no such curve, though single readings can be large or run the other way. Potencies beside an inconclusive call are fits to weak or partial responses and may not hold up.

Experiment: qHTS for Suppressors of FUS Proteinopathy: Primary screen using FUS-linked yeast assay; note: nearly all actives have a fitted effect of over 55% in size
Conditions: S. cerevisiae FUS-expressing, OD600, 24 h; Potency: growth rescue; series mostly up to 76.6 µM
How it was run: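 Yeast expressing FUS under galactose induction, OD 0.005 in 2% galactose medium; compounds in a dilution series, 24 h at 30C. Growth rescue by absorbance at 600 nm; CP55940 positive control, DMSO negative.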
Potency is the fitted concentration of half-maximal effect; tags give direction and shape of the fitted curve.

Which Potency does the source give for `Cc1ccc(CSc2ncc(Cl)c(C(=O)Nc3nnc(C)s3)n2)cc1` here?
Its Potency is “inactive”.

Which Potency does the source give for `CN(C(=O)c1ccc(NC(=O)C2CCCN(C(=O)OC(C)(C)C)C2)cc1)C1CCCC1` (configuration not stated) here?
The Potency was inconclusive: 50.1 µM [activator, single point].

Which Potency does the source give for `NS(=O)(=O)c1cccc(NC(=O)CSc2nc3nc(-c4cccs4)cc(C(F)(F)F)c3c(=O)[nH]2)c1` here?
Its Potency is inconclusive: 44.7 µM [activator, partial curve, poor fit].

Which Potency does the source give for `Cc1cccc(C(=O)NNC(=O)c2ccc(NS(=O)(=O)c3cccs3)cc2)c1C` here?
Its Potency is “inactive”.

For `COC(=O)C1CN(CC(C)C)CCS(=O)(=O)N1Cc1ccc(Cl)cc1` (configuration not stated), which Potency is on record?
Its Potency is “inactive”.

Which Potency does the source give for `C=CCn1c2ccccc2c(=O)c2cc(C#CC[C@@H](C)O)ccc21` here?
The Potency was “inactive”.

For `COc1cccc(CN2CCN(C(=O)c3ccc(-c4ccccc4)cc3)CC2)c1OC`, which Potency is on record?
The Potency was inconclusive: 22.4 µM [activator, partial curve].

Which Potency does the source give for `Cc1ccccc1-c1cccc([C@@H]2C[C@H]3[C@H](CON3C)CN2Cc2cc(Cl)cc(Cl)c2)c1` here?
Its Potency is “inactive”.

For `O=[N+]([O-])c1ccc2c(c1)N([O-])C1(CCCCC1)[N+]2=O`, which Potency is on record?
The Potency was inconclusive: 31.6 µM [activator, partial curve, poor fit].

For `CCOCCCNC(=O)c1ccc2c(=O)n(CCc3ccc(OC)c(OC)c3)c(=O)[nH]c2c1`, which Potency is on record?
Its Potency is “inactive”.

For `Cc1ccc(S(=O)(=O)c2c(N)n(CC3CCOC3)c3nc4ccccc4nc23)cc1` (configuration not stated), which Potency is on record?
Its Potency is inconclusive: 50.1 µM [activator, single point].

For `CCOC(=O)C(Cc1ccccc1)CP(=O)(OC)[C@@H](C)NC(=O)OCc1ccccc1` (some centres not stated), which Potency is on record?
Its Potency is “inactive”.

Which Potency does the source give for `CCCOc1ccc(NCC(=O)Nc2ccc(C)cc2C)cc1` here?
The Potency was inconclusive: 20 µM [activator, partial curve, poor fit].

For `Cc1ccc2onc(CNC(=O)NCc3ccccc3)c2c1`, which Potency is on record?
Its Potency is “inactive”.

Which Potency does the source give for `O=C(c1ccccc1)c1nn(-c2ccccc2)c(=O)cc1-c1ccccc1` here?
Its Potency is “inactive”.

With `Cc1oc(-c2ccccc2Cl)nc1CS(=O)(=O)CC(=O)NC(C)c1ccccc1` (configuration not stated) as the compound, how does the Potency read?
The Potency was inconclusive: 35.5 µM [activator, single point].

With `COc1ccc([C@H]2CC(=O)C=C(c3ccc(OC)cc3OC)C2)cc1` as the compound, how does the Potency read?
Its Potency is inconclusive: 28.2 µM [activator, single point].

Which Potency does the source give for `CCc1ccc(Nc2n[n+](-c3ccccc3)c(-c3ccc(OC)c(Br)c3)s2)cc1` here?
The Potency was inconclusive: 39.8 µM [activator, partial curve, poor fit].

Which Potency does the source give for `COc1ccc(S(=O)(=O)N2CCN(C(=O)CSc3nc4ccccc4nc3N3CCCCC3)CC2)cc1` here?
Its Potency is inconclusive: 17.8 µM [activator, partial curve].

Which Potency does the source give for `COc1ccc(-c2noc(CSc3nnc(Cc4ccccc4)n3-c3cccc(C)c3)n2)cc1` here?
Its Potency is inconclusive: 20 µM [activator, single point].

Which Potency does the source give for `COc1ccc(/C=C/C(=O)Nc2ccc3nc4c(c(Nc5ccc(OC)c(OC)c5)c3c2)CCCC4)cc1` here?
Its Potency is inconclusive: 39.8 µM [activator, single point].

Which Potency does the source give for `COc1ccc(C(=O)/C=C2/C(=O)Nc3ccccc32)cc1OC` here?
The Potency was inconclusive: 31.6 µM [activator, single point].

Which Potency does the source give for `COc1ccc(Nc2nc(NCc3ccco3)nc(N3CCOCC3)n2)cc1` here?
Its Potency is “inactive”.

Which Potency does the source give for `O=C1OC[C@@H]2CCCN2C(=O)[C@@H](CC(=O)N(CCO)Cc2ccccc2)C/C=C\C[C@@H]1Cc1ccc(F)cc1` here?
The Potency was inconclusive: 25.1 µM [activator, partial curve].

Which Potency does the source give for `CCOc1ccc(N2C(=O)CC(N3CCC(O)(c4ccc(Br)cc4)CC3)C2=O)cc1` (configuration not stated) here?
Its Potency is inconclusive: 15.8 µM [activator, partial curve].

Which Potency does the source give for `Cc1ccc(Nc2ncc(C(=O)Nc3ccc(F)cc3F)c3ccccc23)cc1Cl` here?
The Potency was “inactive”.

Which Potency does the source give for `CCS(=O)(=O)N1Cc2ccccc2CC1C(=O)NCC12CC3CC(CC(C3)C1)C2` (configuration not stated) here?
Its Potency is inconclusive: 20 µM [activator, partial curve].

With `Cc1ccn2c(NC3CCCCC3)c(-c3cccc(SC4CCCCC4)c3)nc2c1` as the compound, how does the Potency read?
The Potency was inconclusive: 22.4 µM [activator, partial curve] and inconclusive: 31.6 µM [activator, single point].

Which Potency does the source give for `CCOC(=O)C1=C(C)N=C2SC(C)C(=O)N2C1c1ccc(C(=O)OC)cc1` (configuration not stated) here?
The Potency was inconclusive: 50.1 µM [activator, single point].

For `CC(C)(C)NC(=O)C(c1ccncc1)n1c(=O)c(-c2cc3ccccc3[nH]2)nc2ccccc21` (configuration not stated), which Potency is on record?
Its Potency is inconclusive: 31.6 µM [activator, single point].

Which Potency does the source give for `S=C(N/N=C/c1ccc2ncccc2c1)Nc1ccccc1` here?
The Potency was “inactive”.

With `Cc1nc(-c2cccc(S(=O)(=O)N3CCC(C(=O)NCc4ccccc4Cl)CC3)c2)no1` as the compound, how does the Potency read?
The Potency was inconclusive: 39.8 µM [activator, single point].

With `Cc1cc(C)nc(N2CCC(C(=O)NCc3ccccc3)CC2)n1` as the compound, how does the Potency read?
The Potency was “inactive”.

For `CC(=O)NC(=S)Nc1ccc(NC(=S)NC(=O)/C=C/c2ccco2)cc1`, which Potency is on record?
The Potency was “inactive”.

For `COc1ccc(-c2cc(C(=O)N/N=C/c3cccnc3)c3ccccc3n2)cc1`, which Potency is on record?
Its Potency is inconclusive: 20 µM [activator, partial curve].

Which Potency does the source give for `CCCSc1nc2c(c(=O)[nH]c(=O)n2C)n1Cc1ccc(C)cc1` here?
The Potency was “inactive”.

With `O=C(Nc1ccc(F)cc1)c1cc2cc3ccc(Cl)cc3nc2o1` as the compound, how does the Potency read?
The Potency was “inactive”.

Which Potency does the source give for `COc1cc(OC)cc(-c2c(-c3cccs3)c3cc(-c4ccn[nH]4)ccc3n2C)c1` here?
The Potency was inconclusive: 25.1 µM [activator, single point].

With `S=c1[nH]nc(-c2cc(-c3ccccc3)n[nH]2)n1N=Cc1c[nH]c2ccccc12` as the compound, how does the Potency read?
Its Potency is “inactive”.

Which Potency does the source give for `CCCCCC(=O)Nc1nc(C)c(-c2csc(Nc3ccccc3OC)n2)s1` here?
The Potency was inconclusive: 39.8 µM [activator, single point].

Which Potency does the source give for `CCCCn1nnnc1C(c1cc2ccccc2o1)N1CCN(c2ncccc2C#N)CC1` (configuration not stated) here?
The Potency was inconclusive: 35.5 µM [activator, single point].

With `COc1cccc(NC(=O)CSc2nc3c(sc4ccccc43)c(=O)n2CCCN2CCCC2)c1` as the compound, how does the Potency read?
Its Potency is inconclusive: 31.6 µM [activator, partial curve, poor fit].
